The IC50 comes from the fitted curve, where viability falls to half of the control; a fit beyond the top or the lowest dose is shown as a bound at that dose. AUC, from the same fit, is the share of area under the viability curve across the 256-fold dose range: 1 means no effect, lower means more sensitive. For some assays here: The top dose, if marked as inferred, was derived from the fitted curves, not read from the paper.
Legend:
Test in all cases: Viability of human cancer cell lines after 72 h of drug (GDSC screen)
SN-38 = compound: CCc1c2c(nc3ccc(O)cc13)-c1cc3c(c(=O)n1C2)COC(=O)[C@]3(O)CC [SN-38]; conditions: top dose 0.05 µM; top dose inferred
Method: (§1)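 Human cancer cell lines in 384-well plates, medium with 10% serum, drug for 72 h over a 256-fold dose range (nine 2-fold or five 4-fold steps up to the top dose). Adherent lines were fixed and stained with the nucleic acid dye Syto60, suspension lines read with resazurin; signal relative to control wells, capped at 0 and 100%. One two-parameter sigmoid per drug and line, fitted in a mixed model over all curves with the slope shared within a line.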

Dabrafenib = compound: CC(C)(C)c1nc(-c2cccc(NS(=O)(=O)c3c(F)cccc3F)c2F)c(-c2ccnc(N)n2)s1 [Dabrafenib]; conditions: top dose 10 µM
Method: as §1

LY317615 = compound: Cn1cc(C2=C(c3cn(C4CCN(Cc5ccccn5)CC4)c4ccccc34)C(=O)NC2=O)c2ccccc21 [LY317615]; conditions: top dose inferred
Method: as §1

Cell Line | AUC (SN-38) | IC50 (SN-38) [µM] | AUC (Dabrafenib) | IC50 (Dabrafenib) [µM] | AUC (LY317615) | IC50 (LY317615) [µM]
769-P (kidney, adherent) | 0.79 | 0.0245 | 0.862 | 9.83 | – | –
786-0 (kidney, adherent) | 0.532 | 0.00379 | 0.957 | > 10 | – | –
A172 (glioma, adherent) | 0.728 | 0.0135 | 0.933 | > 10 | – | –
A204 (rhabdomyosarcoma, adherent) | 0.471 | 0.00255 | 0.79 | 5.95 | – | –
A549 (lung adenocarcinoma, adherent) | 0.523 | 0.00364 | 0.841 | 8.24 | – | –
A673 (rhabdomyosarcoma, adherent) | 0.27 | 0.000755 | 0.755 | 3.08 | – | –
A2780 (ovary, semi-adherent) | 0.966 | > 0.05 | 0.958 | > 10 | – | –
BEN (non-small cell lung carcinoma, adherent) | 0.912 | > 0.05 | 0.985 | > 10 | – | –
BFTC-909 (kidney, adherent) | 0.534 | 0.00385 | 0.976 | > 10 | – | –
BHY (head and neck, adherent) | 0.529 | 0.00374 | 0.979 | > 10 | – | –
BPH-1 (prostate, adherent) | 0.495 | 0.00303 | 0.96 | > 10 | – | –
BT-549 (breast, adherent) | 0.758 | 0.0241 | 0.956 | > 10 | – | –
CAL-54 (kidney, adherent) | 0.587 | 0.00561 | 0.963 | > 10 | – | –
CAMA-1 (breast, adherent) | 0.906 | > 0.05 | 0.979 | > 10 | – | –
CCRF-CEM (lymphoblastic leukaemia, suspension) | 0.363 | 0.0014 | 0.899 | 9.05 | – | –
CMK (acute myeloid leukaemia, suspension) | 0.705 | 0.0106 | 0.953 | > 10 | – | –
COLO-792 (melanoma, adherent) | 0.903 | > 0.05 | 0.982 | > 10 | – | –
COLO-829 (melanoma, adherent) | 0.914 | > 0.05 | 0.281 | 0.109 | – | –
COR-L32 (small cell lung carcinoma, suspension) | 0.83 | > 0.05 | 0.961 | > 10 | – | –
COR-L105 (lung adenocarcinoma, adherent) | 0.902 | > 0.05 | 0.974 | > 10 | – | –
ChaGo-K-1 (non-small cell lung carcinoma, adherent) | 0.909 | > 0.05 | 0.973 | > 10 | – | –
ES3 (Ewing sarcoma, adherent) | 0.337 | 0.00107 | 0.813 | 5.76 | – | –
GAMG (glioma, adherent) | 0.645 | 0.00804 | 0.956 | > 10 | – | –
GCT (soft tissue, adherent) | 0.374 | 0.00144 | 0.761 | 3.33 | – | –

Cell Line | AUC (SN-38) | IC50 (SN-38) [µM] | AUC (Dabrafenib) | IC50 (Dabrafenib) [µM] | AUC (LY317615) | IC50 (LY317615) [µM]
GP5d (large intestine, adherent) | 0.886 | 0.0453 | 0.99 | > 10 | – | –
H2591 (mesothelioma, adherent) | 0.685 | 0.0122 | 0.906 | > 10 | – | –
H2803 (mesothelioma, adherent) | 0.875 | > 0.05 | 0.971 | > 10 | – | –
H2804 (mesothelioma, adherent) | – | – | 0.983 | > 10 | – | –
H2810 (mesothelioma, adherent) | 0.811 | 0.0301 | 0.954 | > 10 | – | –
H2818 (mesothelioma, adherent) | 0.807 | 0.0267 | 0.921 | > 10 | – | –
H-EMC-SS (chondrosarcoma, adherent) | 0.828 | 0.0438 | 0.811 | 7.33 | – | –
HCC1806 (breast, adherent) | 0.421 | 0.00194 | 0.963 | > 10 | – | –
HCT-116 (large intestine, adherent) | 0.581 | 0.00514 | 0.777 | 3.81 | – | –
HEL (acute myeloid leukaemia, semi-adherent) | 0.619 | 0.00626 | 0.958 | > 10 | – | –
HL-60 (acute myeloid leukaemia, suspension) | 0.774 | 0.0176 | 0.986 | > 10 | – | –
HLE (liver, adherent) | 0.559 | 0.00449 | 0.986 | > 10 | – | –
HO-1-N-1 (head and neck, adherent) | 0.325 | 0.00107 | 0.958 | > 10 | – | –
HPAF-II (pancreas, adherent) | 0.707 | 0.0145 | 0.796 | 6.41 | – | –
HT-144 (melanoma, adherent) | 0.751 | 0.0181 | 0.232 | 0.0933 | – | –
HTC-C3 (thyroid, adherent) | 0.859 | 0.0497 | 0.183 | 0.0606 | – | –
HeLa (cervix, adherent) | 0.611 | 0.00622 | 0.988 | > 10 | – | –
Hs-445 (Hodgkin lymphoma, suspension) | 0.404 | 0.00174 | 0.936 | > 10 | – | –
Hs-578-T (breast, adherent) | 0.841 | 0.0379 | 0.986 | > 10 | – | –
IGROV-1 (ovary, adherent) | – | – | 0.933 | > 10 | – | –
IST-MES1 (mesothelioma, adherent) | 0.749 | 0.0163 | 0.984 | > 10 | – | –
J82 (bladder, adherent) | 0.504 | 0.0032 | 0.987 | > 10 | – | –
JAR (urogenital system, adherent) | 0.829 | 0.0303 | 0.963 | > 10 | – | –
Jurkat (T-cell leukaemia, suspension) | 0.426 | 0.00204 | 0.916 | > 10 | – | –

Cell Line | AUC (SN-38) | IC50 (SN-38) [µM] | AUC (Dabrafenib) | IC50 (Dabrafenib) [µM] | AUC (LY317615) | IC50 (LY317615) [µM]
KALS-1 (glioma, adherent) | 0.77 | 0.0264 | 0.96 | > 10 | – | –
KG-1 (acute myeloid leukaemia, suspension) | – | – | 0.823 | 5.07 | – | –
KOSC-2 (head and neck, adherent) | 0.622 | 0.00689 | 0.866 | 9.58 | – | –
KP-4 (pancreas, adherent) | 0.533 | 0.00382 | 0.982 | > 10 | – | –
KYSE-180 (oesophagus, adherent) | 0.84 | 0.0323 | 0.987 | > 10 | – | –
KYSE-270 (oesophagus, adherent) | 0.49 | 0.00295 | 0.99 | > 10 | – | –
LC-2-ad (lung adenocarcinoma, adherent) | 0.378 | 0.00142 | 0.966 | > 10 | – | –
LNCaP-Clone-FGC (prostate, adherent) | 0.734 | 0.0162 | 0.888 | > 10 | – | –
LOXIMVI (melanoma, semi-adherent) | 0.439 | 0.00218 | 0.098 | < 0.0391 | – | –
LU-99A (large cell lung carcinoma, adherent) | 0.342 | 0.00115 | 0.961 | > 10 | – | –
OVCAR-8 (ovary, adherent) | – | – | 0.989 | > 10 | – | –
PL18 (pancreas, adherent) | – | – | 0.821 | 5.76 | – | –
WM1552C (melanoma, adherent, top dose 20 µM) | – | – | – | – | 0.534 | 1.55
WM-115 (melanoma, adherent, top dose 20 µM) | – | – | – | – | 0.827 | 16
WSU-DLCL2 (B-cell lymphoma, suspension, top dose 20 µM) | – | – | – | – | 0.931 | > 20
WSU-NHL (lymphoid neoplasm, suspension, top dose 20 µM) | – | – | – | – | 0.848 | 12.3
YAPC (pancreas, adherent, top dose 20 µM) | – | – | – | – | 0.891 | > 20
YH-13 (glioma, adherent, top dose 20 µM) | – | – | – | – | 0.719 | 5.44
YKG-1 (glioma, adherent, top dose 20 µM) | – | – | – | – | 0.873 | 19.7
YMB-1-E (breast, adherent, top dose 20 µM) | – | – | – | – | 0.916 | > 20
YT (lymphoid neoplasm, suspension, top dose 20 µM) | – | – | – | – | 0.883 | 15.9
huH-1 (liver, adherent, top dose 20 µM) | – | – | – | – | 0.953 | > 20
no-10 (glioma, adherent, top dose 20 µM) | – | – | – | – | 0.891 | > 20
no-11 (glioma, adherent, top dose 20 µM) | – | – | – | – | 0.968 | > 20

Source: the supplement of paper PMC4967469
